In the supplement of paper PMC8047034:
Structures can show the parent of a compound that is named as a salt. The list shows a part of the results. Many values rest on one well or one pass, so single values are uncertain.

Key:
OVCAR4 = assay: log2 surviving fraction (library drug vs vehicle, or drug + carboplatin vs carboplatin alone; relative to plate median); ovarian cancer lines: OVCAR4 is platinum-sensitive and Ov4Carbo platinum-resistant; higher = more cell survival; conditions: library drug concentration 10 µM, 7 days
Ov4Carbo = assay: as above; conditions: library drug concentration 10 µM, 7 days

SMILES	log2 surviving fraction (OVCAR4; carboplatin co-treatment 0 µM)	log2 surviving fraction (OVCAR4; carboplatin co-treatment 5 µM)	log2 surviving fraction (Ov4Carbo; carboplatin co-treatment 0 µM)	log2 surviving fraction (Ov4Carbo; carboplatin co-treatment 5 µM)
CC(=O)N[C@H]1[C@H]([C@H](O)[C@H](O)CO)OC(C(=O)O)=C[C@@H]1NC(=N)N [Zanamivir (Relenza)]	0.744	-0.0163	-0.396	0.215
CC(C)CN(C[C@@H](O)[C@H](Cc1ccccc1)NC(=O)O[C@H]1CCOC1)S(=O)(=O)c1ccc(N)cc1 [Amprenavir (Agenerase)]	-4.99	0.176	1.02	0.348
COc1ccccc1N1CCN(CCCNc2cc(=O)n(C)c(=O)n2C)CC1 [Urapidil HCl]	1.1	0.552	-0.712	1.16
COc1ccc(C[C@@H]2c3cc(OC)c(OC)cc3CC[N@+]2(C)CCC(=O)OCCCCCOC(=O)CC[N@@+]2(C)CCc3cc(OC)c(OC)cc3[C@H]2Cc2ccc(OC)c(OC)c2)cc1OC [Cisatracurium besylate (Nimbex)]	-0.572	-0.653	-0.81	-1.18
c1ccc(-c2ccc(C(c3ccccc3)n3ccnc3)cc2)cc1 (stereo not given) [Bifonazole]	-1.75	-2.13	-1.54	-1.52
